{"source": "PubChem BioAssay AID1460", "about": "(National Center for Advancing Translational Sciences (NCATS), 2008)", "note": "About 5,800 (2.1%) of roughly 270,000 compounds were called active. The inconclusive results got no clear call from the source; some entries with a clear call stand among them for comparison. Calls come from the whole dose curve; as a rule, active = well fitted inhibition curve with a large enough effect; inconclusive = small, poorly fitted or top-dose-only effect; inactive = flat fitted curve, though single readings scatter. Potencies of inconclusive entries are doubtful fits and often do not repeat. % is set by controls: 0 for no effect and ±100 for the full control effect; potency is the fitted concentration of half-maximal effect; tags give direction and shape of the fitted curve.", "data": [{"target": "Microtubule-associated protein tau (Homo sapiens) (UniProt P10636)", "sequence (P10636 whole entry, looked up, the tested form may be a part)": "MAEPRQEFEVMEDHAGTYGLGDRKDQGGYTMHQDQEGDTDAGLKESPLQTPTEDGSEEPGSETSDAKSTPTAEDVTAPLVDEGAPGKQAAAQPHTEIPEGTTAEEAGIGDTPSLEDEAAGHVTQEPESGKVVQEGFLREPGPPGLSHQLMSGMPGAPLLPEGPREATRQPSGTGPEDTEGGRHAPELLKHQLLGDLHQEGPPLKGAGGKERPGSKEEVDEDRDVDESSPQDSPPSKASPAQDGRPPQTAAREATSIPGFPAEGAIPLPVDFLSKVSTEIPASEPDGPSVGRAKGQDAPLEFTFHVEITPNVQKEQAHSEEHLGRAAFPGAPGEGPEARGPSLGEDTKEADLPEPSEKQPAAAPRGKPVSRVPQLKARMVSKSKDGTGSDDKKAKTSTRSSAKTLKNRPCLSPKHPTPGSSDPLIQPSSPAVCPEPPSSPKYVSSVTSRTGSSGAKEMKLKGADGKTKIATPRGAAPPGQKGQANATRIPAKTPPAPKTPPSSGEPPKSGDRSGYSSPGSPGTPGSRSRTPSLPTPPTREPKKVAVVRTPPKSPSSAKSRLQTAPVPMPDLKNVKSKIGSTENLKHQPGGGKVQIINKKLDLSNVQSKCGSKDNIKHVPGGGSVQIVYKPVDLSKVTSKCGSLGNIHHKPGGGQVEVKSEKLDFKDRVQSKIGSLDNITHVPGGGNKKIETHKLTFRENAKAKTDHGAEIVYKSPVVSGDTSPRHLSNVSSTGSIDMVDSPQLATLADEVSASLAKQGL", "assay": "qHTS for Inhibitors of Tau Fibril Formation, Thioflavin T Binding; note: nearly all actives have a fitted effect of over 55% in size", "conditions": "recombinant tau K18 P301L (four-repeat tau fragment), heparin-induced fibrillization, ThT fluorescence; series mostly up to 57.4 µM; activity, negative = inhibition: at the top concentration", "summary_of_the_method": "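In this qHTS, human K18 P301L tau is incubated with compound and heparin for 6 hr at 37 C, and Thioflavin T fluorescence then reports fibril load.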", "values": [{"smiles": "CCC(NC(=O)Nc1cc(OC)ccc1OC)c1c(-n2cccc2)sc2c1CCN(CC)C2", "note": "(stereo not given)", "Potency": "inconclusive: 22.4 µM [inhibitor, single point]"}, {"smiles": "O=C(CN1CCN(C(=O)c2ccco2)CC1)Nc1ccc2c(c1)OCCO2", "activity, negative = inhibition": "inactive: -19.3%"}, {"smiles": "Fc1ccc(-n2c(-c3cccs3)nc3nc4ccccc4nc32)cc1", "Potency": "inconclusive: 20 µM [inhibitor, single point]"}, {"smiles": "O=c1cc2[nH]c3ccccc3c(=O)n2nc1-c1ccccc1", "Potency": "inconclusive: 39.8 µM [inhibitor, single point]"}, {"smiles": "O=c1c(O)cc(C2Oc3cc(O)cc(O)c3CC2O)cc2c(C3Oc4cc(O)cc(O)c4CC3O)cc(O)c(O)c12", "note": "(stereo not given)", "Potency": "active: 0.501 µM"}, {"smiles": "C(=N\\Nc1ncnc2sc3c(c12)CCC3)/c1cccs1", "Potency": "inconclusive: 11.2 µM [inhibitor, partial curve]"}, {"smiles": "CCN(C(=O)c1cc2c(=O)n3cccc(C)c3nc2s1)c1ccc(C)c(C)c1", "Potency": "inconclusive: 39.8 µM [inhibitor, single point]"}, {"smiles": "COc1ccc2nc(NC(=O)CSc3nnc(C)n3N)sc2c1", "Potency": "inconclusive: 2 µM [inhibitor, full curve, poor fit]"}, {"smiles": "COc1ccc(-c2csc(NC3OC(=O)c4ccccc43)n2)cc1", "note": "(stereo not given)", "Potency": "inconclusive: 15.8 µM [inhibitor, partial curve]"}, {"smiles": "Cn1c(OCc2cccnc2)nc2c1c(=O)n(Cc1ccc(Br)cc1)c(=O)n2C", "Potency": "inconclusive: 22.4 µM [inhibitor, single point]"}, {"smiles": "O=[N+]([O-])c1cc(/C=N/OCc2c(Cl)cccc2Cl)ccc1N1CCOCC1", "Potency": "inconclusive: 8.91 µM [inhibitor, full curve]"}, {"smiles": "O=C(Nc1ccc2oc(-c3ccc4ccccc4c3)nc2c1)c1ccc2c(c1)OCCO2", "Potency": "inconclusive: 0.398 µM [inhibitor, full curve, poor fit]"}, {"smiles": "Cc1cc(Nc2ccc(Cl)cc2C)nc(-n2nc(C)cc2C)n1", "activity, negative = inhibition": "inactive: -2.29%"}, {"smiles": "CC(C)c1noc(-c2ccccc2OCC(=O)Nc2ccccc2[N+](=O)[O-])n1", "Potency": "inconclusive: 10 µM [inhibitor, partial curve, poor fit]"}, {"smiles": "Cc1cc(-c2nnc(CCC(=O)NC(C)c3ccc(F)cc3)o2)no1", "note": "(stereo not given)", "activity, negative = inhibition": "inactive: 3.22%"}, {"smiles": "O=C(N/N=C\\c1cc(Br)c(Br)o1)c1cncc(Br)c1", "Potency": "inconclusive: 12.6 µM [inhibitor, partial curve]"}, {"smiles": "COC(=O)N[C@@H](c1cccc(C)c1)C(C(C)=O)C(=O)OC", "note": "(stereo not given in full)", "activity, negative = inhibition": "inactive: -9.79%"}, {"smiles": "CC(C)(C)C(=O)NC(=S)Nc1ccccc1F", "activity, negative = inhibition": "inactive: -15.9%"}, {"smiles": "Cc1oc(-c2cccc(Cl)c2)nc1CN1CCCC(C(=O)N2CCN(c3ccc(F)cc3)CC2)C1", "note": "(stereo not given)", "activity, negative = inhibition": "inactive: -9.42%"}, {"smiles": "COC(=O)c1ccccc1N=Nc1c(C)noc1C", "Potency": "inconclusive: 25.1 µM [inhibitor, partial curve, poor fit]"}, {"smiles": "Cc1cccc(Cn2c(C)c(CNC3CCCCCC3)c(C(=O)O)c2C)c1", "activity, negative = inhibition": "inactive: -4.07%"}, {"smiles": "COc1c(Cl)cc(C(=O)N(Cc2ccc(C)o2)C2CCS(=O)(=O)C2)cc1Cl", "note": "(stereo not given)", "activity, negative = inhibition": "inactive: -14.9%"}, {"smiles": "CC1(C)CC(=O)C2=C(C1)N(c1cccc(O)c1)C1=C(C2)C(=O)CC(C)(C)C1", "Potency": "inconclusive: 25.1 µM [inhibitor, partial curve]"}, {"smiles": "COc1ccccc1/C=C/C(=O)Nc1ccc2c(c1)OCCO2", "Potency": "inconclusive: 17.8 µM [inhibitor, partial curve]"}, {"smiles": "O=[N+]([O-])c1cc(F)c2cccnc2c1O", "Potency": "active: 7.94 µM"}, {"smiles": "Cn1c(N)c(C(=O)COC(=O)c2ccnc3ccccc23)c(=O)n(C)c1=O", "Potency": "inactive"}, {"smiles": "O=C1NC(c2cccs2)Nc2sc3c(c21)CCCC3", "note": "(stereo not given)", "Potency": "active: 2.51 µM"}, {"smiles": "CC(C)c1nc2n(n1)C1(CCCCC1)[C@@H]1CCCC[C@@H]1N2", "activity, negative = inhibition": "inactive: 14.7%"}, {"smiles": "CCCCN(CC)S(=O)(=O)c1ccc(C(=O)Nc2nnc(CSC)o2)cc1", "Potency": "inconclusive: 3.16 µM [inhibitor, single point]"}, {"smiles": "Cc1ccsc1/C=C1/SC(N2CCOCC2)=NC1=O", "Potency": "inconclusive: 7.08 µM [inhibitor, full curve]"}, {"smiles": "CN1CC2=Cc3ccccc3OC23Oc2ccccc2C=C3C1", "Potency": "inconclusive: 20 µM [inhibitor, partial curve]"}, {"smiles": "CCOCCCNC(=S)NCCNc1nc2c(C)cccc2cc1C#N", "activity, negative = inhibition": "inactive: -6.17%"}, {"smiles": "CCOC(=O)c1c(NC(=O)CSc2cn(CCNC(=O)c3ccccc3OC)c3ccccc23)sc2c1CCC2", "activity, negative = inhibition": "inactive: -0.951%"}, {"smiles": "O=C(c1cc(-c2ccc3c(c2)OCO3)on1)N1CCN(c2ccccc2)CC1", "Potency": "inconclusive: 7.08 µM [inhibitor, partial curve]"}, {"smiles": "COc1ccccc1C(=O)n1nc(-c2ccco2)nc1SC", "Potency": "inconclusive: 8.91 µM [inhibitor, partial curve, poor fit]"}, {"smiles": "Cc1oc2ccc(O)c(CN3CCN(C)CC3)c2c1C(=O)Nc1cccc(C(F)(F)F)c1", "Potency": "inconclusive: 5.01 µM [inhibitor, full curve, poor fit]"}, {"smiles": "Cc1cccc(NC(=O)c2sc3nc4c(c(-c5cccs5)c3c2N)CN(C)CC4)c1", "Potency": "active: 15.8 µM"}, {"smiles": "COc1ccc(OC)c(C(=O)c2coc3ccc(O)cc23)c1", "Potency": "inconclusive: 44.7 µM [inhibitor, single point]"}, {"smiles": "CC1CCC2(CC1)NC(=O)N(CC(=O)Nc1ccc3c(c1)OCCO3)C2=O", "note": "(stereo not given)", "activity, negative = inhibition": "inactive: 2.63%"}, {"smiles": "CCc1ccc(C(=O)CN(C#N)c2nc(C)cc(C)n2)cc1", "Potency": "inconclusive: 28.2 µM [inhibitor, partial curve]"}, {"smiles": "Cc1nn(-c2ccc(C(=O)Nc3nnc(C4CC4)s3)cc2)c(C)c1Cl", "Potency": "inconclusive: 0.891 µM [inhibitor, full curve, poor fit]"}, {"smiles": "O=C(NNc1ccc(C(F)(F)F)cc1[N+](=O)[O-])c1ccc(NS(=O)(=O)c2ccc(F)cc2)cc1", "Potency": "active: 14.1 µM"}, {"smiles": "Nc1cc2c3c(cccc3c1)C(=O)N(CCN1CCCC1)C2=O", "Potency": "inconclusive: 39.8 µM [inhibitor, single point]"}, {"smiles": "Cc1ccc(NC(=O)CC2SC(=O)N(c3ccccc3)C2=O)cc1", "note": "(stereo not given)", "Potency": "inconclusive: 12.6 µM [inhibitor, partial curve]"}, {"smiles": "Cc1ccc(N=C2c3ccccc3C(=O)C2[N+](=O)[O-])cc1C", "note": "(stereo not given)", "activity, negative = inhibition": "inactive: -11.4%"}]}]}
